The other results are listed elsewhere or left out. Single values are uncertain, as repeats are few or missing.
Each compound was assayed on COLO829 (assay: cell count relative to DMSO control; melanoma cells; higher = more viable cells). Conditions: library dose: low library concentration; 72 h.
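Note: cell number obtained by counting DAPI-stained nuclei in high-throughput microscope images with image analysis software, screen run in 1,536-well plates.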

Row | Structure (SMILES) | cell count
1 | Cc1cn(-c2cc(NC(=O)c3ccc(C)c(Nc4nccc(-c5cccnc5)n4)c3)cc(C(F)(F)F)c2)cn1 [nilotinib] + C[C@]1(O)C[C@@H](c2nc(-c3ccc4ccc(-c5ccccc5)nc4c3)c3c(N)nccn32)C1 [OSI906] (first compound 0.2 µM, partner dose 0.4 µM) | 104%
2 | CC(C)C[C@H](NC(=O)[C@H](Cc1ccccc1)NC(=O)c1cnccn1)B(O)O [Bortezomib] + Nc1nc(F)nc2c1ncn2[C@@H]1O[C@H](CO)[C@@H](O)[C@@H]1O [fludarabine] (first compound 0.001 µM, partner dose 0.2 µM) | 74.9%
3 | COc1ccc(C2=N[C@@H](c3ccc(Cl)cc3)[C@@H](c3ccc(Cl)cc3)N2C(=O)N2CCNC(=O)C2)c(OC(C)C)c1 [Nutlin-3] + CNC(=O)c1cc(Oc2ccc(NC(=O)Nc3ccc(Cl)c(C(F)(F)F)c3)cc2)ccn1 [sorafenib] (first compound 0.1 µM, partner dose 0.4 µM) | 74.1%
4 | COc1ccc(C2=N[C@@H](c3ccc(Cl)cc3)[C@@H](c3ccc(Cl)cc3)N2C(=O)N2CCNC(=O)C2)c(OC(C)C)c1 [Nutlin-3] + COCC[n+]1c2c(n(Cc3cnccn3)c1C)C(=O)c1ccccc1C2=O [YM155] (first compound 0.1 µM, partner dose 0.0004 µM) | 76.8%
5 | COc1ccc(C2=N[C@@H](c3ccc(Cl)cc3)[C@@H](c3ccc(Cl)cc3)N2C(=O)N2CCNC(=O)C2)c(OC(C)C)c1 [Nutlin-3] + Nc1nc(F)nc2c1ncn2[C@@H]1O[C@H](CO)[C@@H](O)[C@@H]1O [fludarabine] (first compound 0.1 µM, partner dose 0.2 µM) | 88.4%

Source: the supplement of paper PMC4604168 (melanoma cell lines)
